The list shows a part of the results, in another mix than the full data. At the low end of the ranking the order means little.

The target of the test is AGO2 F182del S387D + S824A + S828D + S831D + S834A + del182-182 (UniProt Q9UKV8). Briefly: RNA Bind-n-Seq (nitrocellulose filter binding and sequencing). The settings on record: constant regions annealed to DNA blockers; guide miR-122 5' phosphate; 30 mM Tris pH 8.0, 100 mM potassium acetate, 2 mM magnesium acetate, 0.5 mM TCEP, 0.005% NP-40, 0.01 mg/ml yeast tRNA; 3 nM AGO2-miR-122, 100 nM RNA library …; high values mean tight binding.
In the case of “GAGUUCUACAGUCCGACGAUCCCAACGUACCCCGCACCUGGAAUUCUCGGGUGCCAA / UGGAGUGUGACAAUGGUGUUUG / GATCGTCGGACTGTAGAACTC / TTGGCACCCGAGAATTCCA”, the binding signal (fold enrichment over input) amounted to 0.0467. “GAGUUCUACAGUCCGACGAUCCCAACAUGCUCCGCACCUGGAAUUCUCGGGUGCCAA / UGGAGUGUGACAAUGGUGUUUG / GATCGTCGGACTGTAGAACTC / TTGGCACCCGAGAATTCCA”: the binding signal (fold enrichment over input) was found to be 1.55. For “GAGUUCUACAGUCCGACGAUCCCAACAUGCUUCGCACCUGGAAUUCUCGGGUGCCAA / UGGAGUGUGACAAUGGUGUUUG / GATCGTCGGACTGTAGAACTC / TTGGCACCCGAGAATTCCA” the value was 0.0415; for “GAGUUCUACAGUCCGACGAUCCCAACGCGCCUCACACCUGGAAUUCUCGGGUGCCAA / UGGAGUGUGACAAUGGUGUUUG / GATCGTCGGACTGTAGAACTC / TTGGCACCCGAGAATTCCA”, 0.304.

In the case of “GAGUUCUACAGUCCGACGAUCCCAACGUGUCUUACACCUGGAAUUCUCGGGUGCCAA / UGGAGUGUGACAAUGGUGUUUG / GATCGTCGGACTGTAGAACTC / TTGGCACCCGAGAATTCCA”, the binding signal (fold enrichment over input) worked out at 0.0799. For “GAGUUCUACAGUCCGACGAUCCCAACGCGCCUCGCACCUGGAAUUCUCGGGUGCCAA / UGGAGUGUGACAAUGGUGUUUG / GATCGTCGGACTGTAGAACTC / TTGGCACCCGAGAATTCCA” the value was 0.0466; for “GAGUUCUACAGUCCGACGAUCCCAACGCACCCCGCACCUGGAAUUCUCGGGUGCCAA / UGGAGUGUGACAAUGGUGUUUG / GATCGTCGGACTGTAGAACTC / TTGGCACCCGAGAATTCCA”, 0.203; for “GAGUUCUACAGUCCGACGAUCCCAACAUACCCCACACCUGGAAUUCUCGGGUGCCAA / UGGAGUGUGACAAUGGUGUUUG / GATCGTCGGACTGTAGAACTC / TTGGCACCCGAGAATTCCA”, 0.199. For “GAGUUCUACAGUCCGACGAUCCCAACAUGUUCUGCACCUGGAAUUCUCGGGUGCCAA / UGGAGUGUGACAAUGGUGUUUG / GATCGTCGGACTGTAGAACTC / TTGGCACCCGAGAATTCCA” the value was 0.0443; for “GAGUUCUACAGUCCGACGAUCCCAACGUGCCUUACACCUGGAAUUCUCGGGUGCCAA / UGGAGUGUGACAAUGGUGUUUG / GATCGTCGGACTGTAGAACTC / TTGGCACCCGAGAATTCCA”, 0.0667. In the case of “GAGUUCUACAGUCCGACGAUCCCAACACGUCUCACACCUGGAAUUCUCGGGUGCCAA / UGGAGUGUGACAAUGGUGUUUG / GATCGTCGGACTGTAGAACTC / TTGGCACCCGAGAATTCCA”, the binding signal (fold enrichment over input) amounted to 1.38.

Consider “GAGUUCUACAGUCCGACGAUCCCAACAUGCUUUGCACCUGGAAUUCUCGGGUGCCAA / UGGAGUGUGACAAUGGUGUUUG / GATCGTCGGACTGTAGAACTC / TTGGCACCCGAGAATTCCA”, for which the binding signal (fold enrichment over input) stood at 0.0347. In the case of “GAGUUCUACAGUCCGACGAUCCCAACACGCCCUGCACCUGGAAUUCUCGGGUGCCAA / UGGAGUGUGACAAUGGUGUUUG / GATCGTCGGACTGTAGAACTC / TTGGCACCCGAGAATTCCA”, the binding signal (fold enrichment over input) was found to be 0.0552. For “GAGUUCUACAGUCCGACGAUCCCAACACGUCCUACACCUGGAAUUCUCGGGUGCCAA / UGGAGUGUGACAAUGGUGUUUG / GATCGTCGGACTGTAGAACTC / TTGGCACCCGAGAATTCCA”, the binding signal (fold enrichment over input) amounted to 0.187. To “GAGUUCUACAGUCCGACGAUCCCAACAUACUUUGCACCUGGAAUUCUCGGGUGCCAA / UGGAGUGUGACAAUGGUGUUUG / GATCGTCGGACTGTAGAACTC / TTGGCACCCGAGAATTCCA” belongs 0.0589; to “GAGUUCUACAGUCCGACGAUCCCAACACAUCUCGCACCUGGAAUUCUCGGGUGCCAA / UGGAGUGUGACAAUGGUGUUUG / GATCGTCGGACTGTAGAACTC / TTGGCACCCGAGAATTCCA”, 0.0736; to “GAGUUCUACAGUCCGACGAUCCCAACACAUCCCACACCUGGAAUUCUCGGGUGCCAA / UGGAGUGUGACAAUGGUGUUUG / GATCGTCGGACTGTAGAACTC / TTGGCACCCGAGAATTCCA”, 1.11. Consider “GAGUUCUACAGUCCGACGAUCCCAACAUGCCUCGCACCUGGAAUUCUCGGGUGCCAA / UGGAGUGUGACAAUGGUGUUUG / GATCGTCGGACTGTAGAACTC / TTGGCACCCGAGAATTCCA”, for which the binding signal (fold enrichment over input) stood at 0.0547. For “GAGUUCUACAGUCCGACGAUCCCAACGUGUUCUACACCUGGAAUUCUCGGGUGCCAA / UGGAGUGUGACAAUGGUGUUUG / GATCGTCGGACTGTAGAACTC / TTGGCACCCGAGAATTCCA” the value was 0.0499; for “GAGUUCUACAGUCCGACGAUCCCAACGUGUUCUGCACCUGGAAUUCUCGGGUGCCAA / UGGAGUGUGACAAUGGUGUUUG / GATCGTCGGACTGTAGAACTC / TTGGCACCCGAGAATTCCA”, 0.0348; for “GAGUUCUACAGUCCGACGAUCCCAACACAUCCCGCACCUGGAAUUCUCGGGUGCCAA / UGGAGUGUGACAAUGGUGUUUG / GATCGTCGGACTGTAGAACTC / TTGGCACCCGAGAATTCCA”, 0.144. “GAGUUCUACAGUCCGACGAUCCCAACGUGUUUCGCACCUGGAAUUCUCGGGUGCCAA / UGGAGUGUGACAAUGGUGUUUG / GATCGTCGGACTGTAGAACTC / TTGGCACCCGAGAATTCCA”: the binding signal (fold enrichment over input) turned out to be 0.0375. To “GAGUUCUACAGUCCGACGAUCCCAACGCAUCCUACACCUGGAAUUCUCGGGUGCCAA / UGGAGUGUGACAAUGGUGUUUG / GATCGTCGGACTGTAGAACTC / TTGGCACCCGAGAATTCCA” belongs 0.11. As to “GAGUUCUACAGUCCGACGAUCCCAACACAUUUUGCACCUGGAAUUCUCGGGUGCCAA / UGGAGUGUGACAAUGGUGUUUG / GATCGTCGGACTGTAGAACTC / TTGGCACCCGAGAATTCCA”, the binding signal (fold enrichment over input) amounted to 0.0905. To “GAGUUCUACAGUCCGACGAUCCCAACGUAUCUUGCACCUGGAAUUCUCGGGUGCCAA / UGGAGUGUGACAAUGGUGUUUG / GATCGTCGGACTGTAGAACTC / TTGGCACCCGAGAATTCCA” belongs 0.0392; to “GAGUUCUACAGUCCGACGAUCCCAACAUGUUCCGCACCUGGAAUUCUCGGGUGCCAA / UGGAGUGUGACAAUGGUGUUUG / GATCGTCGGACTGTAGAACTC / TTGGCACCCGAGAATTCCA”, 0.0467; to “GAGUUCUACAGUCCGACGAUCCCAACACGUUUCGCACCUGGAAUUCUCGGGUGCCAA / UGGAGUGUGACAAUGGUGUUUG / GATCGTCGGACTGTAGAACTC / TTGGCACCCGAGAATTCCA”, 0.0575. For “GAGUUCUACAGUCCGACGAUCCCAACGCAUUUCGCACCUGGAAUUCUCGGGUGCCAA / UGGAGUGUGACAAUGGUGUUUG / GATCGTCGGACTGTAGAACTC / TTGGCACCCGAGAATTCCA” the value was 0.04; for “GAGUUCUACAGUCCGACGAUCCCAACGUACCCUGCACCUGGAAUUCUCGGGUGCCAA / UGGAGUGUGACAAUGGUGUUUG / GATCGTCGGACTGTAGAACTC / TTGGCACCCGAGAATTCCA”, 0.0467; for “GAGUUCUACAGUCCGACGAUCCCAACGCAUUCCGCACCUGGAAUUCUCGGGUGCCAA / UGGAGUGUGACAAUGGUGUUUG / GATCGTCGGACTGTAGAACTC / TTGGCACCCGAGAATTCCA”, 0.0884. For “GAGUUCUACAGUCCGACGAUCCCAACAUGCCCUACACCUGGAAUUCUCGGGUGCCAA / UGGAGUGUGACAAUGGUGUUUG / GATCGTCGGACTGTAGAACTC / TTGGCACCCGAGAATTCCA” the value was 0.0557; for “GAGUUCUACAGUCCGACGAUCCCAACGCAUCUUGCACCUGGAAUUCUCGGGUGCCAA / UGGAGUGUGACAAUGGUGUUUG / GATCGTCGGACTGTAGAACTC / TTGGCACCCGAGAATTCCA”, 0.0355; for “GAGUUCUACAGUCCGACGAUCCCAACACAUUCUACACCUGGAAUUCUCGGGUGCCAA / UGGAGUGUGACAAUGGUGUUUG / GATCGTCGGACTGTAGAACTC / TTGGCACCCGAGAATTCCA”, 0.309. Consider “GAGUUCUACAGUCCGACGAUCCCAACGCGCUCUACACCUGGAAUUCUCGGGUGCCAA / UGGAGUGUGACAAUGGUGUUUG / GATCGTCGGACTGTAGAACTC / TTGGCACCCGAGAATTCCA”, for which the binding signal (fold enrichment over input) was determined as 0.0671. For “GAGUUCUACAGUCCGACGAUCCCAACGCGUCCUACACCUGGAAUUCUCGGGUGCCAA / UGGAGUGUGACAAUGGUGUUUG / GATCGTCGGACTGTAGAACTC / TTGGCACCCGAGAATTCCA” the value was 0.0709.
